Measured values taken from the RNAGym collection of RNA variant scans (doi:10.7554/elife.90254).
The source gives no read counts; variants with many changes may rest on few reads.

B1: LINE1-mini (parent)
chain: GGCAGAGCUCAACACAGCGUGGCAAAGUGGCUGUGGCUAGACUGCC

Variants of: B1
Assay: self-cleavage, relative activity (ratio to wild type); higher = more cleavage; in vitro, sequencing; the parent is a self-cleaving ribozyme

Variant | self-cleavage
G5U G30A G36C | 0.05
G5U G30U C37U C45A | 0.26
G5U G30U U34G C37G A39C | 0.01
G5U G33A U34A | 0.08
G5U G33A U34G G35C C45A | 0.01
G5U G33A U38C | 0.01
G5U G33C C37G U38A | 0.04
G5U G33U G35U | 0.04
G5U G35A U38G G40C C46G | 0.01
G5U G35U C45G | 0.07
G5U G35U C45U | 0.06
G5U G40C C42A | 0.03
G5U G40U C45A | 0.04
G5U G44A C46G | 0.12
G5U U9A A12C G17U | 0.02
G5U U9A A14C G17C | 0.12
G5U U9A A14G U20G G27C | 0.22
G5U U9A A14U G22A C23U A41U | 0.73
G5U U9A C18A | 0.11
G5U U9A C31U | 0.09
G5U U9A G27C U38G | 0.13
G5U U9A G30U | 0.03
G5U U9A G35C | 0.23
G5U U9A G36C | 0.02

Variant | self-cleavage
G5U U9A G40U | 0.18
G5U U9A U38A | 0.1
G5U U9C A25C U43A G44U | 0.01
G5U U9C C31A | 0.03
G5U U9C C37A U38A A39G | 0.02
G5U U9C C46U | 0.03
G5U U9C G17U G36U C37A | 0.02
G5U U9C G27U G30A C45U C46U | 0.04
G5U U9C G40A | 0.02
G5U U9C U20A C46U | 0.01
G5U U9C U20G C45A | 0.02
G5U U9C U32A | 0.04
G5U U9G A12C G29U C45A | 0.01
G5U U9G C10U A16G G19U G22C A24G U32G | 0.01
G5U U9G C13U C15G A16U | 0.14
G5U U9G C15A | 0.24
G5U U9G C18A | 0.03
G5U U9G C37U | 0.13
G5U U9G G27U | 0.12
G5U U9G G44C | 0.04
G5U U9G U32C | 0.08
G5U U20A C23G A25U G27C C37U G40U | 0.01
G5U U20A C45A | 0.02
G5U U20A G22A A24G G27U A39G | 0.03

Variant | self-cleavage
G5U U20A G22U | 0.18
G5U U20C A25G G36A | 0.06
G5U U20C C31U A39U C42G | 0
G5U U20C C42U | 0
G5U U20C U38C A39U C45A | 0.01
G5U U20G C23G G36A | 0.16
G5U U20G C31U | 0.03
G5U U20G G21C A25G | 0.1
G5U U20G G21U A25G A26U G29C G44C | 0.01
G5U U20G G21U G33C C37G | 0.08
G5U U20G G27A U38C | 0.06
G5U U20G U28G | 0.07
G5U U28A G29U | 0.04
G5U U28A G40U | 0.08
G5U U28A G44C | 0.02
G5U U28A U34G C42A | 0.03
G5U U28C C31A U38G C46G | 0.02
G5U U28C C37U C46A | 0
G5U U28G G30A | 0.03
G5U U28G G33A C45G | 0.01
G5U U28G U34G G35U | 0
G5U U32A G36U | 0.47
G5U U32C G33A | 0.06
G5U U32G A39U U43C | 0.02

Variant | self-cleavage
G5U U32G C45G | 0.1
G5U U34A C42A | 0.04
G5U U34C G35U | 0.08
G5U U34C G40A | 0.06
G5U U34C G44A | 0.04
G5U U34C U43C | 0.02
G5U U38A A41U | 0.08
G5U U38A C46U | 0.05
G5U U43A C46A | 0.36
G5U U43G G44C C46A | 0
A6C A11C A12G | 0.11
A6C A11C A25C C31U G35C G36C | 0
A6C A11C A25U G44C C45U | 0.01
A6C A11C C15U A24G | 0.02
A6C A11C C18G G21U C23A A25G U38C U43A | 0.02
A6C A11C C23U A24C G29C G36A | 0
A6C A11C G35A C37G | 0.02
A6C A11C G44C | 0.01
A6C A11C U38G | 0
A6C A11G C23U C37G | 0.01
A6C A11G C31U U38A A41C C45U | 0
A6C A11G C46A | 0.02
A6C A11G U20G G21U C45G C46U | 0.02
A6C A11U A12C G22C | 0.02

Variant | self-cleavage
A6C A11U A14G | 0.04
A6C A11U C13A G17C G22A | 0.04
A6C A11U C13U A39U | 0.06
A6C A11U G19U | 0.21
A6C A11U G40U | 0
A6C A11U U43C C45U | 0
A6C A12C A25U C31G | 0.01
A6C A12C C23A A26C | 0.02
A6C A12G A26U G27C U43C | 0.02
A6C A12G A41G | 0.06
A6C A12G C13A G22U | 0.09
A6C A12G G29U | 0.07
A6C A12G U28C | 0.04
A6C A12G U38C A41C G44C | 0
A6C A12U A14C C18U C37A C46A | 0
A6C A12U A26U | 0.26
A6C A12U C13U | 0.05
A6C A14C G17A A26G C45A | 0
A6C A14G C23U C37A | 0.09
A6C A14G C42G | 0
A6C A14G C42U | 0.04
A6C A14G G17U | 0.14
A6C A14G G21U | 0.07
A6C A14G G30U G40A | 0.01

Variant | self-cleavage
A6C A14U A16C C31G C45U | 0.05
A6C A14U C31A G44C | 0.07
A6C A14U U20C G27C C31A G36U | 0.05
A6C A16C G19A G22U A41U | 0.02
A6C A16C G30A | 0.05
A6C A16U C18G C42U | 0.01
A6C A16U C23G U28A G29A C37A | 0.08
A6C A16U G22A G35A | 0.02
A6C A24G G27U U28C G36U | 0.06
A6C A24U A25U | 0.26
A6C A24U G33U U34A G44C | 0.01
A6C A24U U32C | 0.13
A6C A24U U43A C46G | 0.01
A6C A25C A26U | 1.51
A6C A25C C31U G33C | 0.05
A6C A25C C37A A41U | 0.19
A6C A25C C42G | 0.05
A6C A25C G30C | 0.22
A6C A25C G35A | 0.13
A6C A25U G27U U32G | 0.03
A6C A26C U34A | 0.07
A6C A26G U28A | 2.56
A6C A26U C31U | 0.14
A6C A26U U43A | 0.06

Variant | self-cleavage
A6C A41U U43G | 0.09
A6C C8A A12U U20G | 0.14
A6C C8A A14C G19U G22U A26C | 0.14
A6C C8A C23G G30U | 0.07
A6C C8A C42A G44A | 0.12
A6C C8A C42U | 0.33
A6C C8A C46U | 0.24
A6C C8A G21C | 0.18
A6C C8A G22A G27U U32A U38G | 0.11
A6C C8A G30C G40U | 0.1
A6C C8A G33U C46A | 0.29
A6C C8A G33U G36A G40A | 0.16
A6C C8A G36C | 0.06
A6C C8A G36U G44C | 0.13
A6C C8A U9G A11U C31G C42U | 0
A6C C8A U20A C31A G33U G44U | 0.03
A6C C8A U28A | 0.21
A6C C8G C10U A12C U28G G36C C42G | 0
A6C C8G G33C C37U | 0.01
A6C C8G U20G | 0.02
A6C C8U A11U G36C C45G | 0
A6C C8U A25G A39U | 0.17
A6C C8U A26C C31G | 0.06
